Source: PubChem BioAssay AID1347043 (National Center for Advancing Translational Sciences (NCATS), 2019)
Among all 76,000 compounds or so, about 1,900 (2.5%) were called active. The shares of active, inactive and inconclusive entries below differ from those in the screen. The call rests on the fitted dose curve; in most records, active means well fitted inhibition curve with a large enough effect; inconclusive means small, poorly fitted or top-dose-only effect; inactive means flat fitted curve, though single readings scatter. Potencies beside an inconclusive call are fits to weak or partial responses and may not hold up.

target: Luciferin 4-monooxygenase (Photinus pyralis) (UniProt P08659); test: Firefly luciferase inhibition profiling of diverse chemical library using quantitative high-throughput screening; further: nearly all actives have a fitted effect of over 65% in size; settings: purified P. pyralis luciferase, luminescence, biochemical; series mostly up to 115 µM
Chain of UniProt P08659 (P08659 whole entry, looked up): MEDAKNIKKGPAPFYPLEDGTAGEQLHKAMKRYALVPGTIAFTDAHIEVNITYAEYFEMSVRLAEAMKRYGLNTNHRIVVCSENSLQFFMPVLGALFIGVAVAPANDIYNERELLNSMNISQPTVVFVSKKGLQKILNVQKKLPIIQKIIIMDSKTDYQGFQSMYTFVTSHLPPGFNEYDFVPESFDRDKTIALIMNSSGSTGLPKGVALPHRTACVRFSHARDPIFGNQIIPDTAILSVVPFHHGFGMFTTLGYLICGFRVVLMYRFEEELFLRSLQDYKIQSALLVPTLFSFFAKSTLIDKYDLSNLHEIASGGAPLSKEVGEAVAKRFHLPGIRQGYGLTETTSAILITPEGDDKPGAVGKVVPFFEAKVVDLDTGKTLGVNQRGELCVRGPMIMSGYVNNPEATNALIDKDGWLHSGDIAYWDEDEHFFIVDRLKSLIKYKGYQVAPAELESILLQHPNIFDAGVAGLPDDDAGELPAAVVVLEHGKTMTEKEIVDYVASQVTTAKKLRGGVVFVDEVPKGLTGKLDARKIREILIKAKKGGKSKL
Method in brief: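 Luminescence read by CCD imager after adding enzyme (10nM final) to wells holding compound, titrated in qHTS. Substrates 10uM each D-luciferin and ATP; buffer 50mM Tris acetate pH 7.5, 10mM Mg acetate, Tween-20, BSA.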
Potency means the concentration at half of the fitted maximal effect; tags describe the fitted curve by direction and shape.

Compound | Potency
COc1cccc(NC(=O)N2CCc3nc4cc(-c5ccccc5Cl)[nH]n4c(=O)c3C2)c1 | inconclusive: 31.6 µM [inhibitor, partial curve]
COc1ccc(NC(=O)c2ccc3c(c2)N(C)C2CCCCN2C3=O)cc1 (centres undefined) | inconclusive: 39.8 µM [inhibitor, partial curve]
O=C(C1CCCN(c2nc3ncccc3o2)C1)N1CCCC1 (centres undefined) | inactive
c1cncc(Nc2cc3c(cn2)CN(Cc2c[nH]c4ccccc24)CCN3)c1 | inconclusive: 89.1 µM [inhibitor, partial curve]
Cc1noc(C)c1CN1CCc2c(n(Cc3cccnc3)n(CCc3ccccc3)c2=O)C1 | inactive
CCOCCn1c(=O)[nH]c2cc(C(=O)NCCc3scnc3C)ccc21 | inconclusive: 79.4 µM [inhibitor, single point]
COc1ccc2c(c1)CCc1c-2n[nH]c1C(=O)N1CCc2nc3cc[nH]n3c(=O)c2C1 | inconclusive: 39.8 µM [inhibitor, partial curve]
Cc1ccc2c(C(=O)Nc3ccc(F)cc3)cnn2c1 | inconclusive: 4.47 µM [inhibitor, full curve]
O=C(CCc1conc1-c1ccccc1F)NCc1cc(F)cc(F)c1 | inconclusive: 50.1 µM [inhibitor, partial curve]
Cc1ccc(C2Cn3nnc(C(=O)N4CCC(C(=O)NCc5ccc(F)cc5)CC4)c3CO2)cc1 (centres undefined) | inconclusive: 39.8 µM [inhibitor, partial curve]
O=C(O)Cn1nc(C2CC2)nc1CCc1nc2ccccc2s1 | inactive
O=C(Cc1ccc(OC(F)(F)F)cc1)Nc1cccn2nc(C3CC3)nc12 | inactive
Cc1cn2nc(C(=O)NCC3CCCCC3)cc2c(=O)[nH]1 | inconclusive: 39.8 µM [inhibitor, partial curve]
CCCCNC(=O)c1cccc2c1CCN2C(=O)Nc1ccc(C)cc1 | inconclusive: 0.1 µM [inhibitor, full curve, poor fit]
Oc1ccccc1CN1CCC[C@H]1c1nc(-c2ccc(N3CCOCC3)nc2)no1 | inconclusive: 70.8 µM [inhibitor, partial curve, poor fit]
CN(C)[C@H]1CCCCN(C(=O)CCc2ccc(-c3ccc(Cl)cc3)[nH]2)C1 | inactive
COc1ccc(CN2CCC(O)(c3csc(CN4CCN(C)CC4)n3)CC2)cc1 | inactive
COc1ccc(CCN2CCC(CN(C)C(=O)c3ccccc3SC)CC2)cc1 | inactive
CC(C)c1noc(CC2CCN(C(=O)c3cc4ccccc4[nH]3)CC2)n1 | inconclusive: 4.47 µM [inhibitor, full curve]
CCNc1cc(N2CCC(CCC(=O)O)CC2)ncn1 | active: 31.6 µM
COc1ccc(NC(=O)NCC2CCCN(C(C)C)C2)cc1OC (centres undefined) | inactive
CC(=O)N1CCN(C(=O)[C@@]23CCCC[C@H]2N(CCC(C)C)C(=O)CC3)CC1 | inactive
CC(C)c1ccc(NC(=O)N2CC[C@@H](CC(=O)O)[C@@H](CC3=NCCc4ccccc43)C2)cc1 | inconclusive: 56.2 µM [inhibitor, partial curve, poor fit]

Compound | Potency
Cc1cccc(C(=O)N2CCC[C@H]2c2nc(-c3ccccc3Cl)no2)c1 | inconclusive: 44.7 µM [inhibitor, partial curve]
Cc1nn2c(c1-c1ccccc1Oc1ccccc1)N(Cc1cccc(O)c1)CCC2 | inactive
CC(C)CCN1CCCC2(CC(Cc3ccccc3)=NO2)C1 (centres undefined) | inactive
O=C(NCc1ccc(F)cc1)c1noc(-c2ccc3c(c2)OCO3)n1 | inconclusive: 50.1 µM [inhibitor, partial curve]
CCN1c2cc(C(=O)Nc3ccccc3F)ccc2C(=O)N2CCCC21 (centres undefined) | inconclusive: 44.7 µM [inhibitor, partial curve, poor fit]
c1csc(CNC[C@H]2Cn3cc(-c4ccc5c(c4)OCCCO5)nc3CO2)n1 | inconclusive: 50.1 µM [inhibitor, full curve]
O=C(C1CC1)N1CCCC(Cc2noc(-c3ccccc3)n2)C1 (centres undefined) | inconclusive: 25.1 µM [inhibitor, full curve]
CC1(c2ccccc2)N(Cc2ccc(O)cc2)C(=O)OC12CCN(Cc1cccnc1)CC2 (centres undefined) | inactive
COCCOc1ccc2c(n1)CCN(C(=O)Cc1ccc(C)cc1)C2 | inconclusive: 14.1 µM [inhibitor, partial curve, poor fit]
O=C(c1ccc(Cl)cc1)N(CC1CCOC1)C1CC1 (centres undefined) | inactive
O=c1ncn(CC2CC2)c2ccc(-c3ccc(F)cc3)nc12 | inconclusive: 126 µM [inhibitor, single point]
c1ccc(CN2CCNc3cnc(Nc4ccc(N5CCOCC5)cc4)cc3C2)cc1 | inconclusive: 79.4 µM [inhibitor, partial curve]
CCC(CC)C(=O)NC[C@H]1O[C@@H](CC(=O)N2CCN(c3ccccn3)CC2)[C@H](O)[C@@H]1O | inactive
CC1=C[C@@H](CNC(=O)c2cccnc2)[C@H](C(C)C)C[C@H]1CC(=O)NCc1ccccn1 | inconclusive: 89.1 µM [inhibitor, partial curve]
CN(C)C(=O)c1n[nH]c2c1CN(C(=O)c1cccc(Cl)c1)CC2 | inactive
COc1ccc(-c2cc3c(ccn3C)c(C(=O)NCc3cccnc3)n2)cc1OC | inconclusive: 79.4 µM [inhibitor, partial curve, poor fit]
O=C(Nc1ccccc1)c1nc2c(o1)CCN(Cc1cccs1)CC2 | inconclusive: 0.631 µM [inhibitor, full curve]
CC(C)N1C[C@H](O)C[C@H]1c1nc(-c2ccc(C(F)(F)F)cc2)no1 | inconclusive: 79.4 µM [inhibitor, partial curve]
O=C(CCCc1cccs1)N1CCC2(CC1)[C@H](O)C[C@@H]2OCCO | inconclusive: 39.8 µM [inhibitor, partial curve]
Cc1ccc(-c2cc(C(=O)N3CCCC3c3nncn3C(C)C)[nH]n2)cc1C (centres undefined) | inconclusive: 39.8 µM [inhibitor, partial curve]
Cc1ccc(NC(=O)CC2=C3CCCCC3N(C)C2=O)cc1 (centres undefined) | inconclusive: 44.7 µM [inhibitor, partial curve]
COc1ccc(CN2C[C@H](O)C[C@H]2c2nc(-c3ccc(OC)cc3)no2)cc1 | active: 11.2 µM
Cc1cccc(-c2noc([C@@H]3Cc4nc[nH]c4CN3C(=O)COCC(=O)O)n2)c1 | active: 56.2 µM

Compound | Potency
CCCc1cc(CNC(=O)c2ccc(N(C)C)nc2)on1 | inactive
Cc1nn(-c2ccc(C(C)C)cc2)c(C)c1[C@@H]1C=C[C@@H](NC(=O)CC2(CC(=O)O)CCCC2)C1 | active: 35.5 µM
O=C1CC2(CCN(c3nc(-c4ccccc4)nc4c3CCC4)CC2)CN1 | inactive
O=C(NCc1cccc(F)c1)c1c[nH]c2ncccc12 | inconclusive: 50.1 µM [inhibitor, partial curve, poor fit]
COc1ccc(C(=O)N2CCC(n3cc(-c4nc(-c5ccccc5)no4)nn3)C2)cc1 (centres undefined) | inconclusive: 39.8 µM [inhibitor, partial curve]
O=C1c2cnc(-c3cc(F)cc(F)c3)nc2OCCN1Cc1ccccc1 | active: 44.7 µM
CN(C)[C@@H]1CN(C(=O)c2nccn2C)CC[C@@H]1CO | inconclusive: 39.8 µM [inhibitor, partial curve]
CC(C)CCN1CCOc2cc(C(=O)Nc3ccc4cn[nH]c4c3)ccc2C1 | inconclusive: 112 µM [inhibitor, single point]
Cc1nnc2ccc(N3CCOCC3)nn12 | inactive
COc1cccc(C(=O)N2CCC(n3cc(-c4nc(-c5ccccc5)no4)nn3)CC2)c1 | inconclusive: 100 µM [inhibitor, partial curve, poor fit]
COc1ccc(C(=O)N[C@@H]2CN(C(=O)Nc3ccc(F)cc3)CCC[C@H]2O)cc1 | inconclusive: 44.7 µM [inhibitor, partial curve, poor fit]
O=C(O)CCn1ncc2cc(OCC3CCN(c4nccc(C(F)(F)F)n4)CC3)ccc21 | inactive
CCc1cc(C(=O)N2CCC(n3nccc3NC(=O)CCOc3ccccc3)CC2)no1 | inconclusive: 56.2 µM [inhibitor, partial curve, poor fit]
Cc1noc([C@H]2CCN(Cc3cccnc3)C[C@H]2NC(=O)C2CC2)n1 | inactive
CC1CCC(NC(=O)c2ccc(CN3C(=O)NC4(CCS(=O)(=O)CC4)C3=O)cc2)CC1 (centres undefined) | inconclusive: 50.1 µM [inhibitor, partial curve, poor fit]
CC1(NC(=O)C2CC2)CN(Cc2nc(-c3cccc(N4CCOCC4)c3)cs2)C1 | active: 39.8 µM
CC1CCN(C(=O)C[C@@H]2c3nc(NC(=O)c4cccc(F)c4)sc3C[C@@H]3[C@](C)(CO)[C@H](O)CC[C@]32C)CC1 | inactive
Cc1ccc2nc(CO[C@H]3CN(C4CCC4)C[C@H]3F)[nH]c2c1 | inconclusive: 79.4 µM [inhibitor, partial curve]
O=C(NCCC1CCN(C(=O)Nc2cc(F)cc(F)c2)CC1)c1cccs1 | inconclusive: 56.2 µM [inhibitor, partial curve]
COc1ccc(-c2ccc3nnc(CNC(=O)CCc4ccccc4)n3n2)cc1 | inactive
CN1CCN(c2ccc(-c3cc4c(ccn4C)c(C(=O)NCCN4CCNC4=O)n3)cc2)CC1 | active: 4.47 µM
CSc1ccc(NC(=O)Nc2cccc(-c3ccc(N4CCOCC4)nn3)c2)cc1 | active: 0.562 µM
CC(=O)N(C1CC1)C1CCOC2(CCN(C(=O)Nc3ccc4c(c3)OCCO4)CC2)C1 (centres undefined) | inconclusive: 44.7 µM [inhibitor, partial curve]
